Measured values: patent US6034230A, “Nucleic acids encoding myocardial peptides” (priority 1999, dated 2000)
Part of at least one peptide drawing is inferred or uncertain, most often the ends. No end group written: not given here.

Assays:
Balb/c mice = assay: Induction of inflammatory cardiomyopathy in mice by immunization with peptide in Freund's complete adjuvant (heart histology, day 21); format: in vivo; conditions: for Percent (prevalence of inflammatory cardiomyopathy) / Prevalence (mice with inflammatory cardiomyopathy / mice injected): Table 1, peptide in FCA; for Percent (prevalence of inflammatory cardiomyopathy) / Mice that developed inflammatory cardiomyopathy: days 0 and 7, day 21; for Prevalence (mice with inflammatory cardiomyopathy / mice injected): injected days 0 and 7, hearts analysed 21 days after initial injection; for Mice that developed inflammatory cardiomyopathy: Balb/c mice about 6 weeks, about 100 microliters of about 500 micrograms/ml peptide in FCA
mice = assay: Simultaneous injection of murine M7A-alpha and M7A-beta peptides, development of inflammatory cardiomyopathy; format: in vivo; conditions: about 50-100 micrograms of both murine M7A-alpha and M7A-beta injected simultaneously

Substance | Percent (prevalence of inflammatory cardiomyopathy) (Balb/c mice) | Prevalence (mice with inflammatory cardiomyopathy / mice injected) (Balb/c mice) | Development of inflammatory cardiomyopathy after simultaneous injection with murine M7A-alpha (mice) | Mice that developed inflammatory cardiomyopathy (Balb/c mice) | Induction of inflammatory cardiomyopathy compared with murine M7A-alpha (Balb/c mice; procedure as for Table 1)
SLKLMATLFSTYASAD [mouse M7A-alpha] | 86% | 18/21 |  |  | 
Ac-MGSMAFHKSRLFLT [C. trach. p11] | 50% | 4/8 |  |  | 
SLKLLSNLFANYAG [Peptide M7A-beta] |  |  | did not develop inflammatory cardiomyopathy | none | 
SLKLMATLFSTYAS [M7A-alpha amino acids 1-14] |  |  |  | 24 of the 27 | 
Ac-VLETSMAEFISTNVIS [C. trach. 3 CRP] | 88% | 7/8 |  |  | 
SLKLMATLFSSYAT [SEQ ID NO:16] |  |  |  |  | about the same degree as murine M7A-alpha
Ac-GIEAAVAESLITKIVA [C. pneum. CRP] | 60% | 6/10 |  |  | 
Ac-VLETSMAESLSTNVIS [C. trach. 2 CRP] | 88% | 7/8 |  |  | 
